# Screen size: about 350,000 compounds; about 31,000 (8.9%) were called active. This list was built around the results that the source calls inconclusive (neither active nor inactive); the mix of calls is not that of the screen. Calls follow the shape of the dose curve; as a rule, active = well fitted inhibition curve with a large enough effect; inconclusive = small, poorly fitted or top-dose-only effect; inactive = no such curve, though single readings can be large or run the other way. Potencies of inconclusive entries are doubtful fits and often do not repeat.
# Molecular target: Histone-lysine N-methyltransferase EHMT2 (Homo sapiens) (UniProt Q96KQ7)
# Sequence of UniProt Q96KQ7 (Q96KQ7 whole entry, looked up): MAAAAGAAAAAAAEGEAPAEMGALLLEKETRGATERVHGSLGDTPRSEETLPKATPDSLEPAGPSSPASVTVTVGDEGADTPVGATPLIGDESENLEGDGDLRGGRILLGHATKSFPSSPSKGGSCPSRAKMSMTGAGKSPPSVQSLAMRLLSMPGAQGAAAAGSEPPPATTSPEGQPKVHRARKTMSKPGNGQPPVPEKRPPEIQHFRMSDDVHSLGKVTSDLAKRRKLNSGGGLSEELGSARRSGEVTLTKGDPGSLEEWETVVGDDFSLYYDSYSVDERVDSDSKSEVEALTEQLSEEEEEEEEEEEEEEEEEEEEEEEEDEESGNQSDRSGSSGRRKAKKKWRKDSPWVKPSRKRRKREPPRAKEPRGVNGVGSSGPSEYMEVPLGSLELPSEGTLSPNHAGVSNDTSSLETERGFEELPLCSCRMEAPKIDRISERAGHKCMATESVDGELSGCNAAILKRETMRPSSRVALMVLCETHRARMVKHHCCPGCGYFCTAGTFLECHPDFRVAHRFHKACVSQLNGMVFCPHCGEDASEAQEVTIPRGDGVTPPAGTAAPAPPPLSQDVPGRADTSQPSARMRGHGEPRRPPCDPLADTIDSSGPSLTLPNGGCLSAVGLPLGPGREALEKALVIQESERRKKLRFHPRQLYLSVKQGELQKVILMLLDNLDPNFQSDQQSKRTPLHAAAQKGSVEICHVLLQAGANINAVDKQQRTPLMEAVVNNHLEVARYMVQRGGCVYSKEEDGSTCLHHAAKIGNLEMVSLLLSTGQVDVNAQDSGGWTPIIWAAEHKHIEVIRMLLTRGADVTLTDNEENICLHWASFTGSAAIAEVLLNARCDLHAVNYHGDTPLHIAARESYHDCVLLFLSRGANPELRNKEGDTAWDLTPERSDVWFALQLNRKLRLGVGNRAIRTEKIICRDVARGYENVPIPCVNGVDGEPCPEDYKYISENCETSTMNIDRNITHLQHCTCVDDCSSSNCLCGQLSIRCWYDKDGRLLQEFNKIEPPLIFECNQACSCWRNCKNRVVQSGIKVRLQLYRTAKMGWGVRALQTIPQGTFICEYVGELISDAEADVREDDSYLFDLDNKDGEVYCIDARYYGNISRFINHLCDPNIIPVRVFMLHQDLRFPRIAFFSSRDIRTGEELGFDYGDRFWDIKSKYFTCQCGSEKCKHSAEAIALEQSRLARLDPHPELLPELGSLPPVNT
# Assay: qHTS Assay for Inhibitors of Histone Lysine Methyltransferase G9a; also: nearly all actives have a fitted effect of over 75% in size
# Conditions: G9a H3K9 monomethylation, AlphaScreen, 2 h; activity, negative = inhibition: at 59 µM (top of the series) unless noted
# Procedure, shortened: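 Using a bead-based AlphaScreen, monomethylated H3K9 product from 2 h room-temperature reactions (G9a 20 nM, peptide 500 nM, SAM 20 uM) was detected with 0.5 ug/mL rabbit anti-H3K9me1 antibody.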
# % is scaled to controls: 0 for no effect and ±100 for the full control effect; potency is read from the fitted curve at half-maximal effect; tags tell the direction and shape of the fitted curve.
Structure (SMILES),Potency,"activity, negative = inhibition"
CCOC(=O)N1CCN(C(=O)c2ccc(CS(=O)(=O)c3ccc(OC)cc3)o2)CC1,"inconclusive: 31.6 µM [inhibitor, partial curve]",
CC1(C)CC(=O)C=C(NCCc2ccc(S(N)(=O)=O)cc2)C1,"inconclusive: 1.78 µM [inhibitor, full curve, poor fit]",
CC(C)C(=O)Nc1c(-c2ccccc2)c(=O)c2ccccc2n1C,"inconclusive: 79.4 µM [inhibitor, single point]",
Cc1cc(Nc2sc(C(=O)c3ccc(F)cc3)c(N)c2C(=O)Nc2ccc(F)cc2)ccc1Cl,"inconclusive: 7.08 µM [inhibitor, partial curve]",
COc1ccc(OC)c(S(=O)(=O)N2CCN(C(=O)c3cc(C4CC4)nn3-c3ccccc3)CC2)c1,"inconclusive: 10 µM [inhibitor, partial curve, poor fit]",
Cc1ccc(Cl)cc1N1CCN(CCCNc2ncnc3onc(-c4ccc(F)cc4)c23)CC1,"inconclusive: 25.1 µM [inhibitor, partial curve, poor fit]",
CCOC(=O)C(NS(=O)(=O)c1ccccc1)(C(F)(F)F)P(=O)(OC(C)C)OC(C)C (centres undefined),"inconclusive: 25.1 µM [inhibitor, single point]",
COc1cc(NC(=O)CSc2nc(C)c(C(=O)Nc3ccccc3)c(-c3ccc(OC)c(OC)c3)c2C#N)c(OC)cc1Cl,inactive,
Cc1ccc(O)c(-c2cc(C(F)(F)F)[nH]n2)c1,"inconclusive: 7.08 µM [inhibitor, partial curve]",
N#Cc1c(NCCCO)nc(NCc2ccccc2)c2c1CCN(Cc1ccccc1)C2,active: 39.8 µM,
CCCCSCc1cc(C(=O)O)oc1C(C)(C)C,"inconclusive: 50.1 µM [inhibitor, partial curve, poor fit]",
Cc1ccc(-c2nnc(Nc3ccc(O)cc3)c3ccccc23)cc1S(=O)(=O)NCc1nc2ccccc2[nH]1,inactive,
O=C(COC(=O)c1ccc(CO)cc1)Nc1ccc2ccccc2c1,"inconclusive: 8.91 µM [inhibitor, full curve, poor fit]",
COCCn1c(-c2ccc(Cl)cc2)cnc1SCC(=O)NCCc1ccc(OC)c(OC)c1,"inconclusive: 25.1 µM [inhibitor, single point]",
Nc1nonc1-c1nc2ccccc2n1CC(=O)N/N=C/c1ccc(-c2ccccc2C(=O)O)o1,active: 44.7 µM,
Cc1ccc(S(=O)(=O)NCCSc2nncn2C)cc1,"inconclusive: 79.4 µM [inhibitor, single point]",
COc1ccccc1OCC(=O)Nc1ccccc1C(=O)NCc1cccnc1,"inconclusive: 10 µM [inhibitor, partial curve, poor fit]",
O=C(COC(=O)CNC(=O)c1ccc(Cl)cc1Cl)NCC1CCCO1 (centres undefined),"inconclusive: 79.4 µM [inhibitor, partial curve, poor fit]",
N#C/C(=C/c1cn(-c2ccccc2)nc1-c1cccc(S(=O)(=O)N2CCCC2)c1)C(=O)NCc1ccco1,active: 50.1 µM,
CCN(CC)S(=O)(=O)c1cc(NC(=O)COC(=O)c2sc3ccccc3c2Cl)ccc1C,"inconclusive: 1.78 µM [inhibitor, full curve]",
CCOc1ccc(-c2nn(-c3ccccc3)cc2/C=C2\SC(=S)N(C3CCS(=O)(=O)C3)C2=O)cc1 (centres undefined),"inconclusive: 3.16 µM [inhibitor, single point]",
CC1CC1C(=O)Nc1nc(-c2ccccc2)cs1 (centres undefined),inactive,

Structure (SMILES),Potency,"activity, negative = inhibition"
COc1ccc(OC)c(C(=O)NC(CC(N)=O)c2ccc(NCCN3CCCCC3)c([N+](=O)[O-])c2)c1 (centres undefined),"inconclusive: 70.8 µM [inhibitor, single point]",
COc1ccccc1NC(=O)NCCCN1CCN(c2cccc(Cl)c2)CC1,"inconclusive: 70.8 µM [inhibitor, single point]",
Cc1cc(NC(=O)CSc2nc(Cc3ccccc3)c(C)[nH]2)no1,"inconclusive: 79.4 µM [inhibitor, single point]",
COc1cc(C2Nc3ccccc3C(=O)N2NS(C)(=O)=O)c([N+](=O)[O-])cc1OC (centres undefined),"inconclusive: 89.1 µM [inhibitor, single point]",
CCOC(=O)c1c(C)[nH]c(CCC(=O)NCCCN2CCN(c3cc(C)ccc3C)CC2)c1C,"inconclusive: 22.4 µM [inhibitor, partial curve, poor fit]",
CC(=O)NC(CC(=O)NC1CCCCCC1)c1ccccc1 (centres undefined),"inconclusive: 39.8 µM [inhibitor, single point]",
CCCNC(=O)N1CCN(S(=O)(=O)c2ccc3c(c2)OCCO3)CC1,"inconclusive: 8.91 µM [inhibitor, single point]",
CC(=O)c1c(N2CCN(c3ccccc3)CC2)nc(=S)n(-c2ccccc2)c1C,inactive,
CC(=O)Oc1ccc(N2C(=O)[C@@H]3[C@H](C2=O)[C@H]2c4ccccc4C=NN2[C@@H]3C(C)=O)cc1,"inconclusive: 39.8 µM [inhibitor, single point]",
Cc1c(C(=O)Nc2ccc(N3CCOCC3)cc2)oc2ccccc12,"inconclusive: 50.1 µM [inhibitor, partial curve, poor fit]",
COc1ccccc1C(=O)NC(=O)COC(=O)c1ccco1,"inconclusive: 50.1 µM [inhibitor, partial curve, poor fit]",
O=[N+]([O-])c1ccc(O)c(P(=O)(c2ccccc2)c2ccccc2)c1,"inconclusive: 56.2 µM [inhibitor, partial curve, poor fit]",
N#CC1=C(N)OC(c2ccccc2)=C(C#N)C1c1ccc2c(c1)OCO2 (centres undefined),,inconclusive: -61.6% [inhibitor]
CC(=O)OC(COc1ccccc1)Cn1cnc2cc(C)c(C)cc21 (centres undefined),inactive,
Cc1onc(-c2c(F)cccc2Cl)c1C(=O)Nc1sc2c(c1C#N)CCC(C(C)(C)C)C2 (centres undefined),"inconclusive: 22.4 µM [inhibitor, partial curve, poor fit]",
O=C(CCSCc1ccccc1Cl)N1CCN(c2cccc(Cl)c2)CC1,inactive,
COc1ccc(C(=O)Nc2nc(C)c(C)s2)cc1OC,"inconclusive: 89.1 µM [inhibitor, partial curve, poor fit]",
CC1CN(C(=O)Nc2cccc(C(F)(F)F)c2)CC(C)O1 (centres undefined),inactive,
CCCC[C@@H]1CNC(=S)N1CC1CCCCC1,inactive,
COc1ccc(-c2[nH]c3ccccc3c2SCCNC(=O)c2ccccc2)cc1,"inconclusive: 70.8 µM [inhibitor, single point]",
COc1cc2c(cc1OC)C(c1cc(C)ccc1C)CC(=O)N2 (centres undefined),"inconclusive: 89.1 µM [inhibitor, single point]",
COc1cc(CNc2ccc3[nH]c(=O)[nH]c3c2)ccc1OCc1ccccc1F,"inconclusive: 2.24 µM [inhibitor, partial curve, poor fit]",

Structure (SMILES),Potency,"activity, negative = inhibition"
CC(C)N(Cc1ccccc1)C(=O)CN1C(=O)COc2ccc(S(=O)(=O)NC3CCCC3)cc21,inactive,
O=C(Nc1c2ccccc2nc2ccccc12)C(Cl)(Cl)Cl,active: 44.7 µM,
Cc1cc(C)cc(NC(=O)CCc2nnc3n(CC(C)C)c(=O)c4ccccc4n23)c1,inactive,
O=C(/C=C/c1ccccc1)C1=C(O)C(=O)N(CCO)C1c1cccc([N+](=O)[O-])c1 (centres undefined),"inconclusive: 10 µM [inhibitor, single point]",
Cc1ccc(C)c(N2N=C(C(=O)Nc3nccs3)CCC2=O)c1,"inconclusive: 89.1 µM [inhibitor, partial curve, poor fit]",
O=C(O)CN1C(=O)SC(Nc2ccccc2)C1=O (centres undefined),"inconclusive: 28.2 µM [inhibitor, single point]",
O=[N+]([O-])c1cc([N+](=O)[O-])c(Oc2cncc(Cl)c2)cc1NC1CCCCCCC1,"inconclusive: 14.1 µM [inhibitor, partial curve, poor fit]",
COc1cc(/C=N/NC(=O)c2ccc(COc3ccccc3Cl)o2)cc(Br)c1O,inactive,
Cc1ccc(OCC(=O)N/N=C/C=C/c2ccco2)cc1,inactive,
CC(C)c1ccc(OCC(=O)Nc2ccc(OC(F)(F)F)cc2)cc1,"inconclusive: 44.7 µM [inhibitor, partial curve]",
COc1ccc(Cl)cc1NC(=O)CSc1ccc(-c2sc(C)nc2C)nn1,inactive,
Nc1ncc(-c2ccccc2)c(-c2ccc(OCc3ccccc3)cc2O)n1,"inconclusive: 20 µM [inhibitor, partial curve, poor fit]",
O=C(O)c1ccc(N=c2oc3cc(O)ccc3cc2C(=O)NCc2ccccc2)cc1,"inconclusive: 79.4 µM [inhibitor, partial curve, poor fit]",
O=C(N/N=C/c1ccccc1O)C1SCCCS1,inactive,
COc1ccc(OCc2n[nH]c(=S)n2N)cc1,active: 1.78 µM,
CCN(CC)S(=O)(=O)c1ccc(NC(=O)CCc2c(C)nc3cc(-c4ccc(Cl)cc4)nn3c2C)cc1,inactive,
CCOc1ccc(C2CC(=O)n3nc(-c4ccc(C)cc4)nc3S2)cc1 (centres undefined),"inconclusive: 1.26 µM [inhibitor, partial curve, poor fit]",
Cc1ccc(-n2c(C)cc(C(=O)Cn3nc(C(=O)O)c4ccccc4c3=O)c2C)cc1,active: 79.4 µM,
CCOc1ccc2[nH]c(=O)c(CN(Cc3ccc(F)cc3)C(=O)c3ccco3)cc2c1,"inconclusive: 50.1 µM [inhibitor, partial curve, poor fit]",
O=C(COC(=O)c1nn(-c2ccccc2)c(=O)c2ccccc12)NC1CCS(=O)(=O)C1 (centres undefined),"inconclusive: 70.8 µM [inhibitor, partial curve, poor fit]",
